Some of the results follow.
B1: chr12:52514574:52514941:-|three_prime_utr|ENSG00000186081|control|control|control (ssRNA)
RNA: GGGAGUUCUACAGUCCGACGAUCCCUGCUGCAAGUCACUGCCUUCCAAGUGCAGCAACCCAGCCCAUGGAGAUUGCCUCUUCUAGGCAGUUGCUCAAGCCAUGUUUUAUCCUUUUCUGGAGAGUAGUCUAGACCAAGCCAAUUCAACAGAGGAUUGAGCAUCA
B2: ENSG00000107863:be:win_3201|CDS|ENSG00000107863|bound_else_gene|NA|bound_elsewhere_windowed (ssRNA)
RNA: GGGAGUUCUACAGUCCGACGAUCAGCAGAACAGUUGCCAAAAACACCUCGCCAGAGUCUCAGCAUCAGGCAAACUUUGCUUGGUGCUAAAUCAGAGCCAAAGACUCAAAGCCCACACUCUCCGAAGGAAGAGUCGGAAAGGAACAACAGAGGAUUGAGCAUCA
B3: chr3:187234081:187235683:-|three_prime_utr|ENSG00000127241|control|control|control (ssRNA)
RNA: GGGAGUUCUACAGUCCGACGAUCACUUCCGACAGCACACUCCACAUUACUUAUCAGACCAUAUGGAAUGGAACACACUGACCUAGCGGUGGCUUCUCCUACCGAGACAGCCCCCAGGACCCUGAGAGGCAGAGUGUGGUAUAGCAACAGAGGAUUGAGCAUCA
B4: chr2:32415736:32415837:+|CDS|ENSG00000115760|unk|total|mutant (ssRNA)
RNA: GGGAGUUCUACAGUCCGACGAUCGCAGAGGAAUGUCCGUGGUGGAUAUUCCGUGCUUUAUAAAAUGAAUUAUGCCACUCGGACCGUGACUUCCGAAGAGGAGCCAAUAAAAAUACAACAUAUCAAAGAUCCCCAGGACACAAUCAACAGAGGAUUGAGCAUCA
B5: chr9:3247878:3248185:-|CDS|ENSG00000080298|control|control|control (ssRNA)
RNA: GGGAGUUCUACAGUCCGACGAUCCGAAUAUAUGUUUUACUUAGUAGAACAUCGUGUUGCUCAGGCAACAGGAGAGACUCCUAUAGCAGUCAUGGGCGAGGUAAGAGAGGCUGAAAGAGCUGUGACCCACUGGGUUAUUAAAAACAACAGAGGAUUGAGCAUCA
B6: chr11:28036422:28036524:-|CDS|ENSG00000121621|unk|total|mutant (ssRNA)
RNA: GGGAGUUCUACAGUCCGACGAUCCAGCUCAAUGAUUCUCUCCGCAAAGAACUUCAGCCUAUUGUAUAUACACCAGAAGACUGCCGAAAAGCUUUUCAAAAUCCGUCUACAGUAACCUUAAUGAAACCAUCAUCAUUUACUACACAACAGAGGAUUGAGCAUCA
B7: ENSG00000124766:be:win_1401|CDS_3pUTR|ENSG00000124766|bound_else_gene|NA|bound_elsewhere_windowed (ssRNA)
RNA: GGGAGUUCUACAGUCCGACGAUCCUCCAACCUGGUUUUCACCUACUGAAGGGCGCGCAGGCAGGGAGAAGGGCCGGGGGGGGUAGGAGAGGAGAAAAAAAAAGUGAAAAAAAGAAACGAAAAGGACAGACGAAGAGUUUAAAGCAACAGAGGAUUGAGCAUCA
B8: chr22:17178789:17181576:-|three_prime_utr|ENSG00000093072|control|control|control (ssRNA)
RNA: GGGAGUUCUACAGUCCGACGAUCGUUGGAGAGUGAGAAAAAUACUUUCAUGGAAAUCUGGAAGAAGAGAUGGGAUAAGUUCAUAGCAGAUGUGGCUACAAAGUGAGGAGAAGCUAGCCAGCCCUCUACAAGCUGUCUUCUUGCCAACAGAGGAUUGAGCAUCA
B9: chr9:34892658:34893152:-|CDS|ENSG00000187791|control|control|control (ssRNA)
RNA: GGGAGUUCUACAGUCCGACGAUCCCAUCACAGGGCUCCUCUUGCCUAGAGGCUUUGUCCACAUCUAGUGUGUCUUUUAAGCAUAGUCAGGAUCUGGGCUCCCCGAAAUCCAAAGAGCUUUCACUGGCAUCUGUAACUCCAACACAACAGAGGAUUGAGCAUCA
B10: chr1:212100457:212100572:+|CDS|ENSG00000143476|unk|total|mutant (ssRNA)
RNA: GGGAGUUCUACAGUCCGACGAUCAGAAGAGGCUCUGUCUCCUCCGUCUCUCCCAAGCCACCUUCAUCUUUCAAGAUGUCGAUCCGAAACUGGGUGACCCGAACACCUUCCUCAUCACCACCCAUCACUCCACCUGCUUCGGAGCAACAGAGGAUUGAGCAUCA
B11: chr14:71589133:71589262:+|CDS|ENSG00000197555|unk|FALSE|unique (ssRNA)
RNA: GGGAGUUCUACAGUCCGACGAUCGAGAUAGGUGGAGAAGGGGAGAGGAAAAUCAGCCUUUCAAAAUCAAAUUCUGGCUCCUUUAGUGGAUGUGAAAGUGCCUCCUUUGAGUCUACCCUUAGUUCCCAUUGCACAAAUGCAGGACAACAGAGGAUUGAGCAUCA
B12: chr17:69016252:69016390:-|CDS|ENSG00000154258|control|control|control (ssRNA)
RNA: GGGAGUUCUACAGUCCGACGAUCUUUUCAAUAGCAUGUAAUACAAAACGGCUGAAUUGCUUUCCUGUCCUCCUGGAUGUCAUUAGCAAUGGACUACUUGGAAUUUUUAAUUCGUCAGAACACAUUCAGACUGACAGAAGCACACAACAGAGGAUUGAGCAUCA
B13: chr7:16784014:16784129:+|3pUTR|ENSG00000106537|msi1_unk|FALSE|overlapping (ssRNA)
RNA: GGGAGUUCUACAGUCCGACGAUCGAUAAUUUACUUGUAGUCUUUUAUGAUUACACCAAUGUAUUCUAGAAAUAGUUAUGUCUUAGGAAAUUGUGGUUUAAUUUUUGACUUUUACAGGUAAGUGCAAAGGAGAAGUGGUUUCAUCAACAGAGGAUUGAGCAUCA
B14: chr17:39604750:39604851:-|3pUTR|ENSG00000171532|msi1|FALSE|unique (ssRNA)
RNA: GGGAGUUCUACAGUCCGACGAUCAUUUUGGCGGGAGGGGAAGUGGAUUGAGAGGAAAGAGAGAGGCCAAGACAAUUUGUAACUAGAAUCCGUUUUUCCCUUUUCCUUUUUUUAAACAAACAAACAUACAAAAAAAAAAAAAAACAACAGAGGAUUGAGCAUCA

biological target: MSI1 full-length (mouse, UniProt Q61474 1-362); assay: nsRBNS (natural sequence RNA bind-n-seq); RBNS binding buffer (assumed for nsRBNS): 25 mM Tris pH 7.5, 150 mM KCl, 3 mM MgCl2, 0.01% Triton X-100, 500 ug/ml BSA, 20 U/ml SUPERase-In, 4 C; UNK is unkempt and MSI1 is Musashi-1; names of the RNAs are library labels; protein concentration not given here; high values mean tight binding
Chain of UniProt Q61474 (Q61474 whole entry): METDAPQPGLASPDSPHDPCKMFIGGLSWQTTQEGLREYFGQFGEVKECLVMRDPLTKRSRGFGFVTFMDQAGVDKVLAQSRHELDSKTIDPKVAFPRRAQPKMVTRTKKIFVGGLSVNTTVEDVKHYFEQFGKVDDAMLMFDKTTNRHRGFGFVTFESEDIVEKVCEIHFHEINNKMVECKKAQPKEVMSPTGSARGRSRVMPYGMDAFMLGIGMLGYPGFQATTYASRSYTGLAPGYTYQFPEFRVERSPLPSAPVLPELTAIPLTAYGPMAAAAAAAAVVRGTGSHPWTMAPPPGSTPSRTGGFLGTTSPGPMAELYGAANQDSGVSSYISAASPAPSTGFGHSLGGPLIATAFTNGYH

First: B1
Second: B2
The binding signal of the first is higher: 1.06 enrichment R for the first, 0.323 enrichment R for the second.

First: B3
Second: B4
The binding signal of the first is lower: 0.56 enrichment R for the first, 0.62 enrichment R for the second.

Compared with B5, B6 is lower in binding signal: 0.72 enrichment R for the first, 0.473 enrichment R for the second.

Going from B7 to B8, the binding signal falls from 0.758 enrichment R to 0.721 enrichment R.

Going from B9 to B10, the binding signal rises from 0.372 enrichment R to 0.426 enrichment R.

First: B11
Second: B12
The binding signal of the first is lower: 0.572 enrichment R for the first, 1.55 enrichment R for the second.

Going from B13 to B14, the binding signal falls from 12.3 enrichment R to 0.985 enrichment R.

From article PMC12136788
